# Results published in a collection of fitness landscapes (doi:10.1126/science.1257360).
# The list shows a part of the results.
# B1: PhoQ; a variant is named by its letters at X, in order, P23837 (parent)
# chain: MKKLLRLFFPLSLRVRFLLATAAVVLVLSLAYGMVALIGYSVSFDKTTFRLLRGESNLFYTLAKWENNKLHVELPENIDKQSPTMTLIYDENGQLLWAQRDVPWLMKMIQPDWLKSNGFHEIEADVNDTSLLLSGDHSIQQQLQEVREDDDDAEMTHSVAVNVYPATSRMPKLTIVVVDTIPVELKSSYMVWSWFIYVLSANLLLVIPLLWVAAWWSLRPIEALAKEVRELEEHNRELLNPATTRELTSLVRNLNRLLKSERERYDKYRTTLTDLTHSLKTPLXXLQXXLRSLRSEKMSVSDAEPVMLEQISRISQQIGYYLHRASMRGGTLLSRELHPVAPLLDNLTSALNKVYQRKGVNISLDISPEISFVGEQNDFVEVMGNVLDNACKYCLEFVEISARQTDEHLYIVVEDDGPGIPLSKREVIFDRGQRVDTLRPGQGVGLAVAREITEQYEGKIVAGESMLGGARMEVIFGRQHSAPKDE
# Variants of: B1
# Assay: enrichment ratio after two sorts for PhoP signalling (ratio (wild type AVST 3.29)); higher = more functional
# Details: with PhoP (E. coli)
row,Variant,enrichment ratio
1,DMKY,≤ 0.25
2,RFNL,≤ 0.25
3,MAWI,8.24
4,QYIT,≤ 0.25
5,RIQT,≤ 0.25
6,HWRC,≤ 0.25
7,KSLK,≤ 0.25
8,VPYA,≤ 0.25
9,RYNV,≤ 0.25
10,DAAD,≤ 0.25
11,VIEQ,≤ 0.25
12,EDPQ,≤ 0.25
13,KHDC,≤ 0.25
14,NDPY,≤ 0.25
15,IRLH,≤ 0.25
16,PCIM,≤ 0.25
17,NMHY,≤ 0.25
18,WMWY,≤ 0.25
19,RGEC,≤ 0.25
20,FLKK,≤ 0.25
21,NRSW,≤ 0.25
22,RPTL,≤ 0.25
23,HLNW,≤ 0.25
24,QWTL,≤ 0.25
25,DHTM,≤ 0.25
26,HYAV,≤ 0.25

row,Variant,enrichment ratio
1,INVG,≤ 0.25
2,DYTF,≤ 0.25
3,RKIQ,≤ 0.25
4,WWIP,≤ 0.25
5,ACWL,≤ 0.25
6,TRLQ,6.73
7,PVNS,≤ 0.25
8,IHNI,≤ 0.25
9,GDGS,≤ 0.25
10,GCQP,≤ 0.25
11,FDWN,≤ 0.25
12,WPNG,≤ 0.25
13,AEDH,≤ 0.25
14,KSEY,≤ 0.25
15,YRVP,≤ 0.25
16,SITT,6.9
17,GQNG,≤ 0.25
18,WFPS,≤ 0.25
19,QSIE,≤ 0.25
20,ERNC,≤ 0.25
21,QHPK,≤ 0.25
22,WNCK,≤ 0.25
23,SMWN,≤ 0.25
24,FRHL,≤ 0.25
25,STEA,≤ 0.25
26,ISFV,≤ 0.25

row,Variant,enrichment ratio
1,KVTT,≤ 0.25
2,NTMD,≤ 0.25
3,ELSM,≤ 0.25
4,LDFA,≤ 0.25
5,QRDK,≤ 0.25
6,WFMP,≤ 0.25
7,RGMA,≤ 0.25
8,YAMY,≤ 0.25
9,RCNS,≤ 0.25
10,TGHS,2.49
11,MHFT,≤ 0.25
12,QDTN,≤ 0.25
13,ELYI,≤ 0.25
14,FKPM,≤ 0.25
15,IAWF,≤ 0.25
16,ELVG,≤ 0.25
17,RKTK,≤ 0.25
18,TLKH,≤ 0.25
19,IMKM,≤ 0.25
20,VDIG,≤ 0.25
21,WQNI,≤ 0.25
22,FMVN,≤ 0.25
23,FAMP,≤ 0.25
24,VVFN,≤ 0.25
25,PIEQ,≤ 0.25
26,RAIL,≤ 0.25

row,Variant,enrichment ratio
1,IYAI,≤ 0.25
2,WLFH,≤ 0.25
3,SFVC,≤ 0.25
4,NEIK,≤ 0.25
5,KRLR,≤ 0.25
6,MPHD,≤ 0.25
7,RYAV,≤ 0.25
8,WVKA,≤ 0.25
9,SRHF,≤ 0.25
10,GWGV,≤ 0.25
11,KGVR,≤ 0.25
12,KQLK,≤ 0.25
13,KQYC,≤ 0.25
14,CSAD,≤ 0.25
15,KAPS,≤ 0.25
16,ATAW,3.44
17,IWKM,≤ 0.25
18,SFNP,≤ 0.25
19,DWTH,≤ 0.25
20,WYES,≤ 0.25
21,MPEA,≤ 0.25
22,RLIQ,≤ 0.25
23,RFTA,≤ 0.25
24,TCCK,21.6
25,GRCY,≤ 0.25
26,NAPT,≤ 0.25

row,Variant,enrichment ratio
1,YYNG,≤ 0.25
2,FALT,4.43
3,GLMD,≤ 0.25
4,VPCI,≤ 0.25
5,PGCR,≤ 0.25
6,LCSH,≤ 0.25
7,FHFC,≤ 0.25
8,DTGT,≤ 0.25
9,ANTG,1.58
10,HSEY,≤ 0.25
11,TPCE,≤ 0.25
12,YCNG,≤ 0.25
13,FLCC,≤ 0.25
14,FTLT,2.51
15,RGQC,≤ 0.25
16,FAGH,0.439
17,VPSC,≤ 0.25
18,ETFT,≤ 0.25
19,AHTS,≤ 0.25
20,FFDE,≤ 0.25
21,PHSH,≤ 0.25
22,FWRV,≤ 0.25
23,AADK,≤ 0.25
24,AKSF,2.49
25,DFHE,≤ 0.25
26,WLSK,≤ 0.25

row,Variant,enrichment ratio
1,IFWV,≤ 0.25
2,EHMH,≤ 0.25
3,DDEG,≤ 0.25
4,MTIN,≤ 0.25
5,HFHS,≤ 0.25
6,REYW,≤ 0.25
7,EQLA,≤ 0.25
8,IWQW,≤ 0.25
9,KEGG,≤ 0.25
10,RMRD,≤ 0.25
11,IFHN,≤ 0.25
12,NNCG,≤ 0.25
13,VSKS,≤ 0.25
14,CCSY,≤ 0.25
15,DCVY,≤ 0.25
16,HAPL,≤ 0.25
17,MTAF,8.26
18,PANY,≤ 0.25
19,EMFL,≤ 0.25
20,YKNR,≤ 0.25
21,PYEA,≤ 0.25
22,WNKW,≤ 0.25
23,NENM,≤ 0.25
